Experimental data published in the supplement of paper PMC12355420.
Where “and” joins values, the source holds several entries; their conditions need not be identical. Equal entries are not always repeated. Structures can show the parent of a compound that is named as a salt. Some of the results follow. Cut-off read from the data, not from the text of the source: active = 0.5 or less and inactive = the rest. Many values rest on one well or one pass, so single values are uncertain.

Tested on: HeLa VPS33A R498W KI + HA-SDC1-FLAG
Assay: relative GAG core protein HA-SDC1 amount per cell number vs DMSO (fraction of DMSO); HeLa model of a glycosaminoglycan (GAG) storage disease; KI is knock-in and KO knock-out; SDC1 is syndecan 1; higher = more SDC1 (GAG core protein)
Details: 50 µM; 24 h
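Note: HA-SDC1 level read out by In-Cell Western staining with an anti-HA antibody against the N-terminal tag, screening FDA-approved library drugs.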

| SMILES | relative GAG core protein HA-SDC1 amount per cell number |
| --- | --- |
| Cn1c(=O)c2c(ncn2CC(O)CO)n(C)c1=O (centres undefined) [Dyphylline] | inactive: 0.896 |
| CCOC(=O)CC(=O)N1CCSC1COc1ccccc1OC (centres undefined) [Moguisteine] | inactive: 0.991 |
| CC(C)=CCC[C@](C)(O[C@@H]1O[C@H](CO)[C@@H](O)[C@H](O)[C@H]1O)[C@H]1CC[C@]2(C)[C@@H]1[C@H](O)C[C@@H]1[C@@]3(C)CC[C@H](O)C(C)(C)[C@@H]3[C@@H](O[C@@H]3O[C@H](CO)[C@@H](O)[C@H](O)[C@H]3O[C@@H]3O[C@@H](C)[C@H](O)[C@@H](O)[C@H]3O)C[C@]12C [Ginsenoside Re] | inactive: 0.732 |
| N[C@@H](Cc1cc(I)c(Oc2cc(I)c(O)c(I)c2)c(I)c1)C(=O)O [L-Thyroxine] | inactive: 1.07 |
| CC(S)C(=O)NCC(=O)O (centres undefined) [Tiopronin (Thiola)] | inactive: 0.769 |
| NCCc1c[nH]cn1 [histamine] | inactive: 1.06 |
| CCC(CC)O[C@@H]1C=C(C(=O)O)C[C@H](N)[C@H]1NC(C)=O [Oseltamivir acid] | inactive: 1.6 |
| CC(=O)Oc1cc(C(F)(F)F)ccc1C(=O)O [Triflusal] | inactive: 0.937 |
| CC[C@@H]([C@H](C)O)n1ncn(-c2ccc(N3CCN(c4ccc(OC[C@@H]5CO[C@@](Cn6cncn6)(c6ccc(F)cc6F)C5)cc4)CC3)cc2)c1=O [Posaconazole] | inactive: 1.24 |
| CC[C@H](C)C(=O)O[C@H]1C[C@H](O)C=C2C=C[C@H](C)[C@H](CC[C@@H](O)C[C@@H](O)CC(=O)O)[C@H]21 [Pravastatin] | inactive: 1.04 |
| Cc1cn([C@H]2C[C@H](O)[C@@H](CO)O2)c(=O)[nH]c1=O [Thymidine] | inactive: 0.63 |
| Cc1cc2c(cc1S(N)(=O)=O)S(=O)(=O)CCC2 [Meticrane] | inactive: 1.24 |
| Cc1nc(NC(=O)N2CCC[C@H]2C(N)=O)sc1-c1ccnc(C(C)(C)C(F)(F)F)c1 | inactive: 0.568 |
| C[C@@H]1CCN(C(=O)CC#N)C[C@@H]1N(C)c1ncnc2[nH]ccc12 | inactive: 0.984 and inactive: 0.976 |
| NC12CC3CC(CC(C3)C1)C2 [Amantadine] | inactive: 0.84 |
| CC1=Nc2ccc(Cl)cc2S(=O)(=O)N1 [Diazoxide] | inactive: 0.787 |
| CCCC(=O)[O-].[Na+] [Sodium butyrate] | inactive: 0.897 |
| CCN(CC)CCOCCOC(=O)C1(c2ccccc2)CCCC1 [Pentoxyverine Citrate] | inactive: 0.895 |
| CC(=O)Oc1cc2c(s1)CCN(C(C(=O)C1CC1)c1ccccc1F)C2 (centres undefined) [Prasugrel hydrochloride] | active: 0.409 |
| COC(=O)N[C@H](C(=O)N[C@@H](Cc1ccccc1)[C@@H](O)CN(Cc1ccc(-c2ccccn2)cc1)NC(=O)[C@@H](NC(=O)OC)C(C)(C)C)C(C)(C)C | inactive: 0.548 |

| SMILES | relative GAG core protein HA-SDC1 amount per cell number |
| --- | --- |
| CCCCCCCN(CC)CCCC(O)c1ccc(NS(C)(=O)=O)cc1 (centres undefined) [Ibutilide Fumarate] | inactive: 0.916 |
| CCc1nc(N)nc(N)c1-c1ccc(Cl)cc1 [Pyrimethamine] | inactive: 0.605 |
| CNS(=O)(=O)CCc1ccc2[nH]cc(C3CCN(C)CC3)c2c1 [Naratriptan] | inactive: 0.895 |
| C[C@H]1C[C@@H]2[C@H]([C@@H](O)C[C@@]3(C)[C@H]2CC[C@]3(O)C(=O)COC(=O)CCC(=O)O)[C@@]2(C)C=CC(=O)C=C12 [Methylprednisolone Sodium Succinate] | inactive: 1.16 |
| COc1cc2ncnc(Nc3ccc(F)c(Cl)c3)c2cc1OCCCN1CCOCC1 [Gefitinib (ZD1839)] | inactive: 1.6 |
| CC(C)NCC(O)COc1ccc(CCOCC2CC2)cc1 (centres undefined) [Betaxolol] | inactive: 0.933 |
| CN1CCC(=C2c3ccccc3CC(=O)c3sccc32)CC1 [Ketotifen Fumarate] | inactive: 0.929 |
| C[C@H]1COc2c(N3CCN(C)CC3)c(F)cc3c(=O)c(C(=O)O)cn1c23 [Levofloxacin] | inactive: 0.835 |
| C=C1CC[C@H](O)C/C1=C/C=C1\CCC[C@]2(C)[C@@H]([C@H](C)CCCC(C)(C)O)CC[C@@H]12 [Calcifediol] | inactive: 0.67 |
| CC(C)(C)NC(=O)N[C@H](C(=O)N1C[C@H]2[C@@H]([C@H]1C(=O)NC(CC1CCC1)C(=O)C(N)=O)C2(C)C)C(C)(C)C (some centres undefined) [Boceprevir] | active: 0.375 |
| CNC[C@H](O)c1cccc(O)c1 [Phenylephrine HCl] | inactive: 0.96 |
| CCOc1nc2cccc(C(=O)O)c2n1Cc1ccc(-c2ccccc2-c2noc(=O)[nH]2)cc1 [Azilsartan] | inactive: 0.913 |
| C[C@]12CC[C@H](O)CC1=CC[C@@H]1[C@@H]2CC[C@]2(C)C(n3cnc4ccccc43)=CC[C@@H]12 | inactive: 1.08 |
| COc1cc(OC)c(C(=O)CCCN2CCCC2)c(OC)c1 [Buflomedil HCl] | inactive: 0.781 |
| Cc1cnc(C(=O)NCCc2ccc(S(=O)(=O)NC(=O)NC3CCCCC3)cc2)cn1 [Glipizide] | inactive: 1.17 |
| CN1CCN(C2=Nc3cc(Cl)ccc3Nc3ccccc32)CC1 [Clozapine] | active: 0.278 |
| Cc1ncc(C[n+]2csc(CCO)c2C)c(N)n1 [thiamine] | inactive: 1 |
| CC[C@@H](CO)NCCN[C@@H](CC)CO [Ethambutol HCl] | inactive: 1.27 |
| Cn1cnc2c(F)c(Nc3ccc(Br)cc3F)c(C(=O)NOCCO)cc21 | inactive: 0.872 |
